Source: article PMC12136788
This is one part of the list.

T1: UNK ZnF1-6 (called full-length) (human, UniProt Q9C0B0 30-357)
T1 sequence: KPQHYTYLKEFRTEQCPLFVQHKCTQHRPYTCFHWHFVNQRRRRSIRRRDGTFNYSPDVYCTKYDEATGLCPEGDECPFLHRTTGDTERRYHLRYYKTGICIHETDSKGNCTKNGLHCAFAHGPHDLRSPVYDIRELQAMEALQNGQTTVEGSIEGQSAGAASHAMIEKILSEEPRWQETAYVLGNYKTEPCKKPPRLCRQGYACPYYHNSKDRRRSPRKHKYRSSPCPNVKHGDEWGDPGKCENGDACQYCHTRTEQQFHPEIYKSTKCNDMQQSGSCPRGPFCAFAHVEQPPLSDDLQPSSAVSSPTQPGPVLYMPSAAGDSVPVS

B1: chr7:138594284:138594621:-|three_prime_utr|ENSG00000157703|control|control|control (ssRNA)
RNA: GGGAGUUCUACAGUCCGACGAUCUCAGAACUGCGGUGCAUUUUUUUAAAACUUGGUUUUACUUCUGUAUGCUACUCGGUAAUUAGUAAAGUGAUUUUUUUUUUAAAGGCAUAUAUGGGAAUGGGGUAGGUAACUGUAUAUUGACAACAGAGGAUUGAGCAUCA
B2: chr10:106575406:106575507:-|3pUTR|ENSG00000108018|unk|total|mutant (ssRNA)
RNA: GGGAGUUCUACAGUCCGACGAUCUUAUGGACUGGGCAAAGCCCACUAUAAACUACCGGAGAAAGAAGUUCUGAUAAACCUCUCCGUAUGCUCAGCCUCCUUCUUUGCUAUGUCCCUAAGCCAACAGGGUAUAACACAGGCCCUCAACAGAGGAUUGAGCAUCA
B3: chr15:85746268:85746369:+|3pUTR|ENSG00000170776|msi1|total|mutant (ssRNA)
RNA: GGGAGUUCUACAGUCCGACGAUCUGUUUUAUUUAUUGUAUUUGUGUGUUUGUGUUUGUUUUUUUUUAAGGGUGAGCCAGGUCCCGCCCAACAGUCUAAACUAUCCAGUCAAUACCGAGUGAAGUGGCAGCCAGCACUGUUCACCAACAGAGGAUUGAGCAUCA
B4: chr5:72207927:72208036:+|3pUTR|ENSG00000131711|msi1_unk|FALSE|overlapping (ssRNA)
RNA: GGGAGUUCUACAGUCCGACGAUCUUUUUUUUUUUUUUUUUUUGCUAUGGGAUUUAAUGGGAAAAAUAUGUAAAAACUGUCACUAGUCAGCUGGCUCUUUUUCCUAUGAAAUCUAUCAGUACCUUUCUCCAUCCGUUGUUCUCACAACAGAGGAUUGAGCAUCA
B5: chr5:141515350:141515460:-|3pUTR|ENSG00000131504|msi1_unk|FALSE|overlapping (ssRNA)
RNA: GGGAGUUCUACAGUCCGACGAUCCUCAGCUUUCCAUCCCCAGCUAGGAAGAAAGAAUGGCACUCUUGGGCUUGGCCCAGAAUUAGAGUUAUUAGAGCAAGAGAGAGCUUAGGAAGCAUGAGGGCAACUAUAGUGAGGCCUUAUCAACAGAGGAUUGAGCAUCA
B6: chr8:58583617:58583718:-|3pUTR|ENSG00000035681|unk|total|mutant (ssRNA)
RNA: GGGAGUUCUACAGUCCGACGAUCGUUUUGUCUUCCUAAUCUAUCACAAUUGCCACCCAUCGGGUUUUGGGUGUGUGUUUUCACCGCGUGGUUACUUUCUAUAAUGCUGUACCCAGAUUCUAAGAACCUGGAGAAGGAUCCGCACAACAGAGGAUUGAGCAUCA

Target: T1, UNK ZnF1-6 (called full-length)
Assay: nsRBNS (natural sequence RNA bind-n-seq); RBNS binding buffer (assumed for nsRBNS): 25 mM Tris pH 7.5, 150 mM KCl, 3 mM MgCl2, 0.01% Triton X-100, 500 ug/ml BSA, 20 U/ml SUPERase-In, 4 C; UNK is unkempt and MSI1 is Musashi-1; names of the RNAs are library labels; protein concentration not given here; high values mean tight binding

| Binder | binding signal |
| --- | --- |
| B1 | 3.04 enrichment R |
| B2 | 0.578 enrichment R |
| B3 | 1.28 enrichment R |
| B4 | 2.61 enrichment R |
| B5 | 13.3 enrichment R |
| B6 | 0.474 enrichment R |
